# Assay results published in the supplement of paper PMC8277577.
# Positions count from the first letter of the chain named. Recombinant human monoclonal antibodies (heavy:light variable regions). ELISA EC50 on the named antigen, from 10 µg/ml down; lower = stronger. No active / inactive call.
# B1: C968 (protein)
# chain 1: QVQLVESGGGVVQPGRSLRLSCAASGFTFRIYAMHWVRQAPGKGLEWVAIIWNDGNKKDYVDSVKGRFTISRDNSRNTVYLQMNSLRVDEDTAVYYCAREGVAVGGNGVDGFDMWGQGTMVTVSS
# chain 2: DIQMTQSPSSLSSSVGDRVTITCRASQSIGIYLNWYQQKPGKVPNLLIYAASTLQTGAPSRFSGSGSGTDFILSISSLQPEDFATYYCQQTYSVPYTFGQGTKLEIK
# B2: C981 (protein)
# chain 1: EVQLVESGGGLVQPGGSLRLSCAASGFTFSNYDMHWVRQVTGNGLEWVAAIGTSGDTYYPDSVKGRFTISRENVKNSLFLQMNSLRAGDTAVYYCARGGSSSWLWYFDLWGRGTLV
# chain 2: DIQMTQSPSSLSASVGDRVTITCRASQSISSHLNWYQQKPGKVPKLLIYAASTLQSGVPSRFSGSGSGTDFTLTISSLQPEDFATYYCQQSYSMPPVTFGQGTRLEIK
# B3: C976 (protein)
# chain 1: EVQLVESGGALIQPGGSLRLSCAASGFTVSSNDMTWVRQAPGKGLEWVSVIYTGGGTYHADSAKGRFIISRHNSKNTLSLQMNDLRAEDTAVYYCARLTMTTYYFDSWGQGTLVTVSS
# chain 2: SYELTQPPSVSLAPGQTARITCGGNGIGSKSVHWYQQKPGRAPVLVVYDDSVRPSGTPARFSGANSGNTATLTISRVEAGDEADYYCQVWDSFRDHQDWVFGGGTKLTVL
# B4: C977 (protein)
# chain 1: EVQLVESGGGLVQPGGSLRLSCAASGFTFSNYDMHWVRQVTGKGLEWVSLIGTAADAYYADSVKGRFTISRENAKNSLYLQINSLRAGDTAVYFCARGDSSGLYTFFDYWGQGTLVTVSS
# chain 2: DIQMTQSPSSLSASVGDRVTITCRASQSVTRYLNWYQLKPGKAPKLLIYAASSLQSGVPSRFSGSGSGTDFTLTISSLQPEDFATYYCQQSYSTLGLTFGGGTKVEI
# B5: C971 (protein)
# chain 1: EVQLVESGGGLVKPGGSLRLSCAASGFTFNNAWMTWVRQAPGKGLEWVGRIKSKTDGGTTDYGTPAKGRFTISRDDSKNTLYLQMKSLRTEDTAVYYCTTVDVQGIWELLENDAFDIWGQGTMVTVSS
# chain 2: EIVLTQSPGTLSLSPGERATLSCRATQAISSTYLAWYQQKPGQAPRLLIYGAFSRAPGIPDRFSGSGSETDFTLTISRLEPEDFAVYYCQQSDRSPFTFGPGTKVDIK
# B6: C966 (protein)
# chain 1: EVQLVESGGGLIQPGGSLRLSCAASGFTFSSYDMHWVRQVTGKGLEWVSAIGTAGDRYYLDSVKGRFTISRENAKNSLHLQMNNLRVGDTAVYYCARASGVLTTHFDSWGRGTLVTVSS
# chain 2: DIQMTQSPSSLSASVGDRVTITCRASQSIGRHLSWHQQKLGKAPKLLIYSASSLQSGVPSRFSGSGSGTDFTLTISSLQPEDFATYYCQQSYETPPWTFGQGTKVEIK
# B7: C842 (protein)
# chain 1: QVQLVESGGGVVQPGRSLRLSCAASGFTFSTYAIHWVRQAPGKGLEWVAAISYDGSNKYYSDSVKGRLFISRDNSNNTVYLQMNNLRAEDTAIYYCARDGTIVTLVRGVMGPPFDYWGQGTLVTVSS
# chain 2: not shown
# B8: C967 (protein)
# chain 1: QVQLVESGGGVVQPGRSLRLSCAASGFTFRIYAMHWVRQAPGKGLEWVAIIWNDGSKQYYADSMKGRFTISRDNSKNTLYLQMNSLRDEDTALYYCAREGVALAGNGVDGFDIWGQGTMVTVSS
# chain 2: DIQMTQSPSSLSASVGDRVTITCRASQTISTFLNWYRQIPGKAPKLLIYAASSLQSGVPSRFSGSGSGTDFTLTISSLQPEDFATYYCQQTYSTPYTFGRGTKLEIK
# B9: C978 (protein)
# chain 1: QVQLVQSGAEVKKPGSSVKVSCKASGATFSNYIISWVRQAPGQGLEWMGRTIPLLDIANYAQKFQGRVTITADKSTRIVYMHLGSLTSEDTAVYYCATGKGYSSSSAAYYFDHWGQGTLVTVSS
# chain 2: QSVLTQPPSVSGAPGQRVTISCTGTNSNIGAGYDIHWYQQLPGTAPKLLIYGSNNRPSGVPDRFSGSKSGTSASLAITGLQAEDEADYYCQSYDSSLSGSEVFGGGTKLTVL
# B10: C974 (protein)
# chain 1: EVQLVESGGDLTQPGGSLRLSCAASGFTFSNYDMHWVRQATGKGLEWVSGIGTSGDTYYADSVKGRFTISRENAKNSLFLQMNHLRAGDTATYYCARTEYAWGSYRSYWYFDLWGRGTLVTVSS
# chain 2: DIQMTQSPSSLSASVGDRVTITCRTSQTISTYLNWYQQKPGKAPKVLIFAASSLQSGVPSRFSGSGSGTDFTLTISSLQPEDFATYFCQQSYSAPPWTFGPGTKVEIK
# B11: C975 (protein)
# chain 1: B10 chain 1 with N31S, H84N
# chain 2: B10 chain 2 with F49Y
# B12: C841 (protein)
# chain 1: EVQLVESGGGLVQPGGSLRLSCAASGFTFSIFSMNWVRQAPGKGLEWISYISSSSGSRHYADSVKGRFTISRDNAKNSLYLQMNNLRDEDTAMYYCAREAHDGALTGYGDYLNWFDPWGQGVLVTVSS
# chain 2: SYELTQPPSVSVAPGKTARIPCGGDSVGSKSVHWYQQKSGQAPVLVIHSDSDRPSGIPERFSGSNSGNTATLTITGVAAGDEADYYCHVWDTIGDRFYWVFGGGTKLTVL
# B13: C979 (protein)
# chain 1: QVQLVESGGGVVQPGRSLRLSCVASGFTFSNYGMHWVRQAPGKGLEWVAVILYDGSDKYYLDSVKGRFTISRDNSKNTLFLQLNSLRAEDTAVYYCAKEGNGYGYQYAGMDVWGQGTTVTVS
# chain 2: QSALTQPASVSGSPGQSITISCTGTNSDVGGYDYVSWYQQHPGKAPKLIIFEVINRPSGVSNRFSGSKSGNTASLTISGLRAEDEADYYCCSYTTSTTRVFGGGTKLTVL
# B14: C970 (protein)
# chain 1: QVQLQESGPGLVKPSETLSLTCTVSGDSINKYYWGWIRQPPGKGLEWIGYIYYSGTTNYNPSLKSRVTISVDTSKTQFSLKLSSVTAADTAVYYCARLLSTEWSFNWFDPWGQGTLVTVSS
# chain 2: SYELTQPPSVSVSPGQTASITCSGDTLGDKYACWYQQKPGQSPLLVIYQNNKRPSGIPERFSGSNSGNTATLTISGTQAMDEADYYCQAWDSSTAYVFGTGTKVTVL
# B15: C972 (protein)
# chain 1: EVQLVESGGGLVQPGGSLRLSCAASEFIVSRNYMSWVRQAPGKGLEWVSLIYPGGSTYYPDSVKGRFTISRDNSKNTLYLQMNSLRGEDTAVYYCARDLGDSRLDYWGQGALVTVSS
# chain 2: DIQLTQSPSFLSASVGDRVTITCRASQGISSYLAWYQQDPGKAPKLLIYAASTLQSGVPSRFSGSGSGTEFTLTISSLQPEDFATYYCQQLDSYPPGYSFGQGTKLEIK
# B16: C980 (protein)
# chain 1: QVQLVQSGAEVKKPGSSVKVSCEASGGTFSSDSINWVRQAPGQGLEWMGRIIPIFGATNYAQKFQGRVTITADKSTDTVYMEVSSLTSEDTAVYYCARGGIAVGGWWFDPWGQGTLVTVSS
# chain 2: EIVMTQSPATLSVSPGERATLSCRASESVSSKLAWYQQKPGQAPRLLIYGASTRATGISARFSGSGSGTDFTLTISSLESEDFAVYYCQQYNHWPPNTFGQGTKLEIK
# Target: SARS-CoV-2 Wuhan-Hu-1 spike receptor-binding domain
# Test: ELISA binding EC50; higher = weaker binding; ELISA of recombinant human antibody on coated antigen, from 10 µg/ml in fourfold dilutions; four-parameter fit.
row,Binder,ELISA binding EC50
1,B1,3.19 ng/mL
2,B2,2.12 ng/mL
3,B3,2.52 ng/mL
4,B4,2.13 ng/mL
5,B5,2.21 ng/mL
6,B6,1.97 ng/mL
7,B7,3.01 ng/mL
8,B8,3.58 ng/mL
9,B9,2.09 ng/mL
10,B10,2.94 ng/mL
11,B11,2.88 ng/mL
12,B12,3.15 ng/mL
13,B13,2.54 ng/mL
14,B14,3.71 ng/mL
15,B15,2.18 ng/mL
16,B16,4.07 ng/mL
